In publication PMC4336329 (PLoS ONE, 2015):
Hit rate of the full screen: of about 310,000 compounds, about 14,000 (4.5%) showed an effect of 50% or more. The effect is printed as a negative number. This is one part of the list.

What follows are molecules tested against human ether-à-go-go-related gene (hERG) potassium channel (human, UniProt Q12809) (assay: primary screen, population patch clamp on CHO cells stably expressing hERG).
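Further: peak tail current of the secondary pulse compared with the same well before compound.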

human ether-à-go-go-related gene (hERG) potassium channel, sequence (Q12809 whole entry, looked up): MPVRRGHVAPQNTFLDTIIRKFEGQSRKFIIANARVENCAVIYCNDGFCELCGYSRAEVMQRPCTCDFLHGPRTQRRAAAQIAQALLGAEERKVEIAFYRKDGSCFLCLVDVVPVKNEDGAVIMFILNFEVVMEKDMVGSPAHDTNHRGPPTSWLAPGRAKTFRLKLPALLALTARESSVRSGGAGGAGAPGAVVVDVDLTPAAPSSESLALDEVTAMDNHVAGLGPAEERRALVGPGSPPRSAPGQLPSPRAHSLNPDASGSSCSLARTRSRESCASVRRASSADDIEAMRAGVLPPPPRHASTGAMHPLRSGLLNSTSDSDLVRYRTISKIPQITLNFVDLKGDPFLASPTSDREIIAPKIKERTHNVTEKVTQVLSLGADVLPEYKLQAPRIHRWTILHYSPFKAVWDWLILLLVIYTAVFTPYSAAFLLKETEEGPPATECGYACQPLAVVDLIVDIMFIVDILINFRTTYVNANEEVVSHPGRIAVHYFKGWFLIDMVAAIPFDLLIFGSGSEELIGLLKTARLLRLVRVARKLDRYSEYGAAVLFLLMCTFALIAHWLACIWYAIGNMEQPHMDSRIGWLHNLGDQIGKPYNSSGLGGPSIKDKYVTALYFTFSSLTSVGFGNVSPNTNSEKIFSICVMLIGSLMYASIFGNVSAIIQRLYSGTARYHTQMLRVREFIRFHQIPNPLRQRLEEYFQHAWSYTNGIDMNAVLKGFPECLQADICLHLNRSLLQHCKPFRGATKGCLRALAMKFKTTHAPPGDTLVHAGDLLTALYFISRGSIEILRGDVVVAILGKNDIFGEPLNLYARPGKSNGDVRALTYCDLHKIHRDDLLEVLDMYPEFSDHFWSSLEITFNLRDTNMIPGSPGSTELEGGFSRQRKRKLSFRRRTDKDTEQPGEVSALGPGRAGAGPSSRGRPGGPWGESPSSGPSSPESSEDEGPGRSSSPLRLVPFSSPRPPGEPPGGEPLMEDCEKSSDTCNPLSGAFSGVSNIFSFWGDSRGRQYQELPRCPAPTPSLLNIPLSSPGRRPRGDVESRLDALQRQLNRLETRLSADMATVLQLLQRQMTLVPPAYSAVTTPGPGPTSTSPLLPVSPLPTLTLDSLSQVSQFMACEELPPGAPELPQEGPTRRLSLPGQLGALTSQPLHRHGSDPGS

Row | Structure (SMILES) | hERG current change (%, negative = inhibition) at 10uM [%]
1 | Cc1ccc(C(=O)N/N=C\c2ccc(-c3ccc([N+](=O)[O-])cc3)o2)cn1 | -9.46
2 | COc1ccc(C/C(N)=N/OC(=O)CCc2ccccc2)cc1 | 14.9
3 | CCCC(=O)Nc1nnc(SCC(=O)N2C(C)CCCC2C)s1 (centres unmarked) | -50.1
4 | COc1ccccc1CNC(=O)CNC(=O)c1cn(-c2ccccc2OC)c(=O)c2ccccc12 | -24.6
5 | Cc1ccc(S(=O)(=O)N2CCC3(CC2)CC(=O)c2ccccc2O3)cc1 | -25.7
6 | Oc1ccc(/C=N/Nc2nc(N3CCCC3)nc(N3CCCC3)n2)cc1O | 2.71
7 | CCOc1ccc2nc(NC(=O)c3cnc(C)cn3)sc2c1 | -6.77
8 | CC(=O)c1cccc(N2C(=NC(=O)C3CCCCC3)SC3CS(=O)(=O)CC32)c1 (centres unmarked) | -32.6
9 | O=C(CNc1cccc(S(=O)(=O)N2CCCC2)c1)Nc1ccc(C(F)(F)F)cc1 | 15.1
10 | CCCN1CCC(=O)N([C@H](CO)Cc2ccccc2)CC1 | 0.476
11 | O=C(NNC(=S)NC1CCCCC1)c1ccccc1O | 15.2
12 | Cc1ccc(/C=N/OC(=O)c2c(C)noc2-c2snnc2C)cc1 | 9.54
13 | CCOCCn1c(SC)nc2c1c(=O)[nH]c(=O)n2C | 9.71
14 | CSc1nnc(N2C(=O)C(O)=C(C(=O)c3ccco3)C2c2ccc(F)cc2)s1 (centres unmarked) | 10.7
15 | O=C(O)c1cccc(Cn2c(Cl)c(/C=N/NC(=O)c3ccccc3)sc2=O)c1 | 17
16 | O=C1NC(=Nc2cccnc2)S/C1=C\c1cccc(F)c1 | -2.05
17 | CCOc1ccc(CN2CCNC(=O)C2CC(=O)NCC2CCOCC2)cc1 (centres unmarked) | 7.02
18 | CCOC(=O)CSc1ccc2ccccc2n1 | -19.5
19 | Cc1ccc(C)c(SCC(=O)Nc2cccc(S(=O)(=O)NC3=NCCCCC3)c2)c1 | -11.1
20 | CCOc1ccccc1NC(=S)NCc1ccccc1 | 7.29
21 | O=C(Cn1c(NCCO)nc2ccccc21)NCC(F)(F)F | 10.4
22 | CN(C)S(=O)(=O)NCCNC(=O)c1cc(OCC(F)(F)F)ccc1OCC(F)(F)F | 4.32

Row | Structure (SMILES) | hERG current change (%, negative = inhibition) at 10uM [%]
23 | CCN(c1ccccc1)S(=O)(=O)c1cccc(C(=O)NCc2ccccc2CN2CCOCC2)c1 | -37.6
24 | COc1ccc(COC(=O)C2=C(C)NC(=O)NC2c2cccc(Br)c2)cc1 (centres unmarked) | 16.6
25 | O=C(NCc1ccccc1)c1ccc(CS(=O)(=O)Cc2ccccc2F)o1 | -5.62
26 | O=C(CCN1C(=O)/C(=C/C=C/c2ccccc2)SC1=S)Nc1ccccn1 | 21.5
27 | N#C/C(=C(/O)CSc1ncn[nH]1)c1nc2ccccc2[nH]1 | 5.68
28 | Cc1ccc(S(=O)(=O)NCC(=O)NCC2COc3ccccc3O2)cc1C (centres unmarked) | -9.72
29 | COc1cc(Br)cc(Br)c1OCC(=O)N/N=C/c1c(C)n(C)n(-c2ccccc2)c1=O | -23.1
30 | CCOC(=O)Cn1c(=N)n(CCOc2ccc(Br)cc2)c2ccccc21.Cl | -69.5
31 | COc1cc(C(=O)Nc2ncccc2C)ccc1OCC(=O)N1CCOCC1 | -4.78
32 | C/C(CCc1ccccc1)=N/NC(=O)C(=O)NC(C)c1ccccc1 (centres unmarked) | -7.23
33 | COC(=O)C1=C(c2ccc(OC(F)(F)F)cc2)C[C@@H]2CC[C@H]1N2C(=O)NC1Cc2ccccc2C1 | -13.6
34 | O=C1NC2(CCCCC2)C(=O)N1c1ccc(Cl)cc1 | 22.3
35 | C/C(=N\NC(=S)Nc1cc(S(=O)(=O)N2CCOCC2)ccc1Cl)c1ccccc1F | 0.315
36 | O=C1OC(c2ccc(F)cc2)=N/C1=C\C=C/c1ccccc1 | 10.9
37 | Cc1ccc(-c2nc(CS(=O)(=O)CC(=O)N3CCc4ccccc4C3)c(C)o2)cc1 | -16
38 | CCCCn1c(N)c(N(Cc2ccccc2OC)C(=O)C(C)Oc2ccc(Cl)cc2)c(=O)[nH]c1=O (centres unmarked) | 10.7
39 | O=c1c2c3c(sc2n(CCN2CCOCC2)c(=O)n1Cc1ccco1)CCCCC3 | -44.3
40 | Br.CC(C)(C)c1ccc(C2=CSC3=NCCN23)cc1 | -55.8
41 | COC(=O)c1cc2c(ccn2-c2ccc(F)cc2)n1CC(=O)OC(C)C | 27.3
42 | CC(=O)c1c(C)[nH]c(C(=O)OCC(=O)c2c[nH]c3ccccc23)c1C | 10.4
43 | COc1ccc(C)cc1S(=O)(=O)Nc1ccccc1 | -7.39
44 | Cc1cccc(N2CCN(C(=O)CCC(=O)N3CC(C)Oc4ccc(C)cc43)CC2C)c1 (centres unmarked) | -37.8

Row | Structure (SMILES) | hERG current change (%, negative = inhibition) at 10uM [%]
45 | CCCOc1ccc(CN(CCO)CCO)cc1[N+](=O)[O-].Cl | -54.2
46 | Cc1ccc(S(=O)(=O)C2(C(=O)N3CCN(c4cc(C)ccc4C)CC3)CC2)cc1 | -15.2
47 | O=C(NCc1ccccc1)c1cccc(S(=O)(=O)N2CCOCC2)c1 | 0.662
48 | COc1cccc(NC(=S)Nc2ccc(O)cc2)c1 | 15.3
49 | CC(=O)C1=C(c2ccccc2)NC(=O)NC1c1ccccc1OCC#N (centres unmarked) | 2.5
50 | CS(=O)(=O)Nc1ccc(C(=O)NCCSCc2c(F)cccc2Cl)cc1 | -57.7
51 | Cc1nc2ccc(NC(=O)c3c(-c4ccccc4)noc3C)cc2s1 | -9.2
52 | CC(C)Cn1c(=S)[nH]c2ccccc2c1=O | 22
53 | COc1ccc(C(C)=O)cc1COC(=O)c1cccnc1SC | 5.68
54 | CC(=O)/C(=N/Nc1cccc(C)c1)N1CCOCC1.Cl | 10.5
55 | CCC(C)N1C(=O)CCC1C(=O)N1CCN(c2ccc(F)cc2)CC1 (centres unmarked) | -28.3
56 | Cc1ccc(C)c(NC(=S)NC(NC(=O)/C=C/c2ccccc2)C(Cl)(Cl)Cl)c1 (centres unmarked) | 13.7
57 | CCOC(=O)CSc1nc2cc(OCC)ccc2cc1C#N | -4.45
58 | CCCC(=O)c1ccc(N2CCN(C(=O)c3ccccc3)CC2)c(F)c1 | -66.7
59 | COC(=O)C1=CN(CCCN2CCCC2=O)C=C(C(=O)OC)C1c1ccccc1C(F)(F)F | -57.1
60 | COc1ccccc1CC(=O)Nc1cc(Cl)ccc1O | 7.68
61 | CN(C(=O)Cc1csc(-c2ccccc2)n1)c1c(N)n(Cc2ccccc2)c(=O)[nH]c1=O | 15.7
62 | Cc1ccc(OCc2ccc(C(=O)Nc3nc4ccccc4n3C)o2)c([N+](=O)[O-])c1 | 22.9
63 | Cc1ccccc1N1CC(C(=O)Nc2nnc(SCc3cccnc3)s2)CC1=O (centres unmarked) | 1.55
64 | Cc1ccc(-c2csc(NC(=O)C3CC=CCC3C(=O)O)c2C(=O)OC(C)C)cc1 (centres unmarked) | -7.86
65 | COc1ccc(S(=O)(=O)N2CCN(CC(=O)N3CCc4ccccc4C3)CC2)cc1OC | -18.5
66 | CN(C)C(=O)Oc1ccc(-c2cn3cc(Cl)ccc3n2)cc1 | 8.92

Row | Structure (SMILES) | hERG current change (%, negative = inhibition) at 10uM [%]
67 | CCN(CC(=O)Nc1ccc(OC)cc1)C(=O)c1cc(-c2cccs2)nn1-c1ccccc1 | -15.4
68 | COCCNC(=O)C(=O)N/N=C(\C)CC(=O)Nc1ccc2c(c1)OCO2 | 11.9
69 | CC1(C)NC(=O)N(CC(=O)Nc2nc(-c3ccc(F)cc3)cs2)C1=O | -23.9
70 | COc1cccc2c1OC1(C)CC2N(C(=O)c2ccco2)C(=S)N1c1ccc(F)cc1 (centres unmarked) | 1.8
71 | COC(C(=O)Nc1ccccc1F)c1ccccc1 (centres unmarked) | 9.45
72 | O=C(c1ccccc1Cl)N1CCC(n2cccc2)CC1 | 5
73 | CCOC(=O)N1CCN(Cc2nc(C3CC3)no2)CC1 | 13.8
74 | Cc1c(C)c2ccc(OC(C)C(=O)N[C@@H](Cc3c[nH]c4ccccc34)C(=O)O)c(C)c2oc1=O (some centres unmarked) | 7.27
75 | CC(=O)O/N=C(/C)c1ncc(C(F)(F)F)cc1N1CCOCC1 | 16.5
76 | Cc1cc(C)cc(NC(=O)CCn2cnc3cc(C)c(C)cc32)c1 | -13.9
77 | COc1ccc(/C=N/NC(=O)c2cc(Br)ccc2O)cc1Cn1cc(Cl)cn1 | -34.1
78 | O=C(COc1ccc(Cl)cc1)Nc1nc(-c2cccs2)cs1 | 11
79 | CC12CCC(=O)N1c1ccccc1C(=O)N2c1ccccc1 (centres unmarked) | -9.9
80 | Cc1cc(C)n(-c2ccc(C(=O)Nc3ccccc3N3CCOCC3)cc2)n1 | -18.7
81 | COc1ccc(NC(=O)COc2ncnc3ccccc23)cc1S(=O)(=O)N1CCOCC1 | 19.1
82 | COc1cccc(N2CCN(C(=O)C3CCN(S(=O)(=O)c4ccc5c(c4)CC(C)N5C(C)=O)CC3)CC2)c1 (centres unmarked) | -17.1
83 | Cc1cc(N)n2nc(-c3ccccc3)cc2n1 | -6.74
84 | N/C(CN1CCCC1=O)=N\OC(=O)c1ccc(Cl)c(Cl)c1 | -22.8
85 | CCCN1C(=O)c2ccccc2NC1c1ccc(C)cc1 (centres unmarked) | -4.35
86 | O=c1[nH]c2ccc(NCc3ccc(OCc4ccccc4Cl)cc3)cc2[nH]1 | 29.4
